Article PMC4336329 (PLoS ONE, 2015)
Screen size: about 310,000 compounds; about 2,200 (0.71%) showed an effect of 50% or more. The effect is printed as a negative number. This is one part of the list.

Molecular target: human ether-à-go-go-related gene (hERG) potassium channel (human, UniProt Q12809)
Assay: primary screen, population patch clamp on CHO cells stably expressing hERG

Chain of human ether-à-go-go-related gene (hERG) potassium channel (Q12809 whole entry, looked up): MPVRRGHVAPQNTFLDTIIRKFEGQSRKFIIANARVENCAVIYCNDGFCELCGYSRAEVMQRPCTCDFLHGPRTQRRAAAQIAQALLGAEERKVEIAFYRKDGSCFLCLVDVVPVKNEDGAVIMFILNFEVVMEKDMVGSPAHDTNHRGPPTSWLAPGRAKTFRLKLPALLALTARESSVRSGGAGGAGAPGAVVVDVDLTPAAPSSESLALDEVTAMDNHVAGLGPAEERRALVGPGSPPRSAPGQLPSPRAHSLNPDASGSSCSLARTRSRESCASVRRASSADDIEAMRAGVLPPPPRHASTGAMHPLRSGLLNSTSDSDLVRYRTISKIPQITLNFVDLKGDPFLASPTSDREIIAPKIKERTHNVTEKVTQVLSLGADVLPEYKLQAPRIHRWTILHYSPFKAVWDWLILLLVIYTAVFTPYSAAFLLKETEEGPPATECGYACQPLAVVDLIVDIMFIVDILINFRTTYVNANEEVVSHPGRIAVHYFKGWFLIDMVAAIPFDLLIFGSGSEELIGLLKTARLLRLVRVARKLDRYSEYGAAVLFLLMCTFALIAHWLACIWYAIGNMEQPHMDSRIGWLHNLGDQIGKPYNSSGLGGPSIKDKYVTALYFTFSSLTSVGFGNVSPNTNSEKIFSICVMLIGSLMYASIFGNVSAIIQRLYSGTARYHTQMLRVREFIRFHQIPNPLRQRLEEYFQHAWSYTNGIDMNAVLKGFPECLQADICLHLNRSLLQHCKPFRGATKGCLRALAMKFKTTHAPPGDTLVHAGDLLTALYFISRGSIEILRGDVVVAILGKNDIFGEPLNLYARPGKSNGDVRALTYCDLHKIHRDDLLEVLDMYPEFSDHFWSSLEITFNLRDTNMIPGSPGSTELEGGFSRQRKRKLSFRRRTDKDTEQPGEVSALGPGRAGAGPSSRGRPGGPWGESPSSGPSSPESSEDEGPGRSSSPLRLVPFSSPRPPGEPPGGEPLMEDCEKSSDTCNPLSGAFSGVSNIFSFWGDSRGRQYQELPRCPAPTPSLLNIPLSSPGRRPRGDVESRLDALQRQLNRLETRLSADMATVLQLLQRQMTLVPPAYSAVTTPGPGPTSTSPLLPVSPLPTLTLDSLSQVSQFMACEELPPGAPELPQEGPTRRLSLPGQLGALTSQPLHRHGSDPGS

SMILES | hERG current change (%, negative = inhibition) at 1uM [%]
COc1ccc(S(=O)(=O)N2CCN(CC(O)COc3ccc(CC#N)cc3)CC2)cc1OC (stereo not drawn) | 10.5
Cn1c(=O)n(Cc2ccccc2)c(=O)c2c1nc(NCC1CCCO1)n2Cc1ccccc1 (stereo not drawn) | 3.58
Nc1nc(Sc2ccc([N+](=O)[O-])cc2[N+](=O)[O-])n[nH]1 | 14.5
CCOC(=O)Cc1[nH]nc2c1C(c1cc(OC)ccc1OC)C(C#N)=C(N)O2 (stereo not drawn) | 14.9
Cc1ccc(N(CC(=O)NCC2CCCO2)S(C)(=O)=O)cc1Cl (stereo not drawn) | 14.4
O=[N+]([O-])c1cc(F)c(N2CCCC2)cc1Br | 15.1
CSc1ccccc1NC(=O)NCCCl | 11
CCOC(=O)c1c(C)[nH]c(N=Nc2ccccc2C)c1C | 13
CC1Cc2ccccc2N1C(=O)Cn1cnc2c1c(=O)n(C)c(=O)n2C (stereo not drawn) | 15.1
COc1ccc(CCNC(=O)C(=O)c2c[nH]c3ccccc23)cc1OC | 9.47
CCOC(=O)CCSc1nnc(-c2cccnc2)n1-c1ccccc1OC | 7.5
COc1ccc(NC(=S)N(CCc2c(C)[nH]c3ccccc23)Cc2ccco2)cc1 | 9.71
COC(=O)c1cc(-c2cc(OC)ccc2OC)nc2c1c(=O)n(C)c(=O)n2Cc1ccccc1 | 20.5
COC(=O)c1cc(NC(=O)c2cc(-c3ccc(OC)cc3)oc2C(F)(F)F)ccc1N1CCOCC1 | -7.46
Cc1cc(C(=O)C(=O)N(C)C)c(C)n1-c1ccc(Cl)c(Cl)c1 | 3.71
CCOC(=O)Nc1sc2nc(C)cc(C)c2c1-n1cccc1 | 10.6
CCCCCCCC(=O)NNC(=O)CCC(=O)O | 11.6
COc1cc(NC(=O)c2ccc(Br)o2)c(C(=O)O)cc1OC | 15.5
Cc1nc2ccc(NC(=O)COc3ccccc3[N+](=O)[O-])cc2s1 | 15.3
Cc1c(NC(=O)C(C)OC(=O)CNC(=O)c2ccccc2)c(=O)n(-c2ccccc2)n1C (stereo not drawn) | -4.79
CC(NC(=O)c1cc(S(=O)(=O)N(C)C)ccc1N1CCCC1)C1CC2CCC1C2 (stereo not drawn) | -1.38
CC(C)(C)c1cc(=O)n(-c2ccccc2)[nH]1 | 9.5
CCOc1cccc(CNc2ccc(O)cc2)c1OCc1ccc(Cl)cc1 | 14.4

SMILES | hERG current change (%, negative = inhibition) at 1uM [%]
CCNC(=S)N1C2CCC1CC(NC(=O)NC1CCCCC1)C2 (stereo not drawn) | 5.51
Cc1cccc(-c2c(NC(=O)c3ccco3)oc3c(C)cccc3c2=O)c1 | 13.1
NC(=O)C1CCN(C(=O)CCc2ccsc2)CC1 | 13.7
CN(C)C=Nc1nonc1-c1ncn[nH]1 | 7.39
Cc1ccccc1C(=NC(=O)c1ccccc1)c1ccccc1 | -0.799
CCOC(=O)CCC(=O)Nc1ccccc1C(N)=O | 0.175
CCOc1ccc(-n2c(SCC(=O)NCc3ccco3)nc3c([nH]c4ccccc43)c2=O)cc1 | 5.3
Nc1nc2ccc(Cl)cc2c2nc(-c3ccco3)nn12 | 12.5
O=C1CCCC(O)=C1N=Nc1c(Cl)cc(C(F)(F)F)cc1Cl | 14.6
COc1ccccc1N=Cc1c(O)c2ccccc2oc1=O | 1.01
COc1ccc(CNC(=O)C/C(C)=N/NC(=O)Cc2ccc(OC)cc2)cc1 | 16.9
C=CCN=C(NC#N)SCCc1ccccc1 | 11.8
CCOc1ccc(S(=O)(=O)N2CCC(C(=O)NCCc3ccccc3)CC2)cc1 | 16.6
O=C(NCCCNC(=O)c1cccs1)c1cccs1 | 12
Cc1cnc(C(=O)OCC(=O)c2c[nH]c3ccccc23)cn1 | 8.34
Cc1ccc(NC(=O)c2ccc(C(C)(C)C)cc2)cc1[N+](=O)[O-] | 11.2
CCOC(=O)Nc1ccc(S(=O)(=O)NCCCN2CCOCC2)cc1 | 2.7
O=C(COC(=O)CNC(=O)c1ccc([N+](=O)[O-])o1)Nc1ncc(Cl)cc1Cl | -10.7
COc1ccc(N(CC(=O)NCc2ccc(Cl)cc2)S(=O)(=O)c2c(C)noc2C)cc1 | 13.8
Cc1[nH]c2ccccc2c1C(=O)C(=O)N1CCOCC1 | 11.4
Cc1ccc2[nH]c3c(c2c1)CCCC3NC(=O)CCl (stereo not drawn) | 13.7
CCCCC[C@H](O)/C=C/[C@@H]1[C@@H](CCCCCCC(=O)O)[C@@H](O)C[C@H]1O | 11
CNCCC=C1c2ccccc2C=Cc2ccccc21 | 17.8

SMILES | hERG current change (%, negative = inhibition) at 1uM [%]
Cc1nn(CCC(=O)Nc2cccc(C#N)c2)c(C)c1S(=O)(=O)N1CCCCC1 | 10.3
CN(C(=O)COC(=O)c1cc(S(=O)(=O)N2CCOCC2)ccc1Cl)C1CCS(=O)(=O)C1 (stereo not drawn) | 7.57
CC(C)(C)CN1CCNC[C@H]1Cc1ccc(O)cc1 | 2.08
CCN1/C(=C/c2ccc3ccccc3[n+]2CCCS(=O)(=O)[O-])C=Cc2cc(C)ccc21 | 13
Nc1nncn1C(=O)c1cc(Br)ccc1Cl | 12
CCCCc1nc2cc(C(=O)N3CCNC(=O)C3CC(=O)OC)ccc2o1 (stereo not drawn) | 16
CCN=C(NS(=O)(=O)c1ccc(Br)cc1)c1ccc(Cl)cc1 | 10.6
Cc1ccc(SCC(=O)c2c(C)[nH]c3ccccc23)cc1 | 4.12
COc1ccc(C(=O)N2CCCCCC2)cc1OC1CCN(C(C)C)CC1 | 12.8
O=C(NC1CC2CCC(C1)N2Cc1nnnn1Cc1ccco1)NC12CC3CC(CC(C3)C1)C2 (stereo not drawn) | 7.2
C1COCCO1.Cn1c2c(c(=O)n(C)c1=O)C(c1ccccc1Cl)C(C#N)=C(N)O2 (stereo not drawn) | 6.06
CC(C)(C)NC(=O)NC(=O)CSc1n[nH]c(-c2ccccc2Br)n1 | -4.61
Cc1noc(C)c1S(=O)(=O)Nc1ccc(C#N)cc1 | 19
COc1ccc(S(=O)(=O)N2CCOCC2)cc1NC(=O)COC(=O)C1CC1C (stereo not drawn) | 6.73
Cc1cc(C)cc(NC(=O)C2C3C=CC4(O3)C2C(=O)N(CCCN2CCCCC2)C4C(=O)NC2CCCCC2)c1 (stereo not drawn) | 12.6
CCC(=O)N1CC(=O)Nc2ccc(Cl)cc2C1c1ccc(F)cc1 (stereo not drawn) | 4.47
O=C(COC(=O)CCSc1ccc(Cl)cc1)Nc1ccc(F)cc1 | 9.63
CC(=O)CC(c1ccccc1)c1c([O-])c2ccccc2oc1=O.[Na+] (stereo not drawn) | 17
COc1ccc(OC)c(C2NC(=O)NC(C)=C2C(=O)Nc2ccc(C)cc2C)c1 (stereo not drawn) | -13.8
CO/N=C/CC(=O)c1ccc([N+](=O)[O-])c(CS(=O)(=O)c2ccc(Cl)cc2)c1 | -1.85
CC(=O)N1CCc2cc(S(=O)(=O)N3CCOCC3)ccc21 | 11.3
O=C(c1ccccc1)N1CCN(c2ccc([N+](=O)[O-])cc2-n2cccc2)CC1 | 12.1
O=C(CSCC(=O)NC1CC1)Nc1ccccc1 | 0.305

SMILES | hERG current change (%, negative = inhibition) at 1uM [%]
O=C(NCCc1ccc(C(F)(F)F)cc1)C1CCC(=O)N(CCCc2ccccc2)C1 (stereo not drawn) | -8.21
Cc1c(Br)c([N+](=O)[O-])nn1CCCC(=O)NC(C)c1ccccc1 (stereo not drawn) | 1.63
O=C(COC(=O)c1cccc(Br)c1)NCCNC(=O)COC(=O)c1cccc(Br)c1 | 20.7
Cc1oc2nc(SCC(=O)NC3CCCCC3)nc(N)c2c1C | -6.37
N#C/C(=C(/O)c1ccco1)c1nc2ccccc2[nH]1 | 13.9
CCCCOCP(=O)(CC)COCCCC | 11.5
COc1cc(C(=O)Nc2ccc(C)cc2)c(-n2cnnn2)cc1OC | 6.57
O=C(NC1CCCCC1)C(c1ccccc1F)N(Cc1ccco1)C(=O)c1ccccn1 (stereo not drawn) | 10
Cc1nnc(SCCn2c(N3CCCCCC3)nc3c2c(=O)[nH]c(=O)n3C)s1 | 1.51
COC(=O)CC1(C(=O)OC)Oc2ccc(Br)cc2C(=O)N1c1ccc(Br)cc1Cl (stereo not drawn) | 10.2
CN(C)S(=O)(=O)c1cccc(NC(=S)N2CCc3ccccc32)c1 | 18.2
Cc1ccc(N(C(=O)CNC(=O)c2ccco2)C(C(=O)NC2CCCCC2)c2cccnc2)c(C)c1 (stereo not drawn) | -30
Nc1nnc(Cc2ccc(F)cc2)s1 | 6.63
CNS(=O)(=O)c1cccc(C(=O)OCC(=O)Nc2ccc(-c3nc4ccc(C)cc4s3)cc2)c1 | 10.5
COc1ccc(NC(=O)CSc2cn[nH]n2)cc1OC | 19.8
CCN(CC)c1c([N+](=O)[O-])c(=O)n(CC)c2ccccc12 | 2.29
COc1ccc(/C(N)=N/OC(=O)c2ccco2)cc1 | 8.49
CCCC(=O)Nc1ccc(C(=O)N2CCCC2)cc1 | -3.99
C/C(=N/NC(=O)c1ccco1)c1cccnc1 | 16
CCOC(=O)c1c(NC(=O)C2=C(C)NC(=S)NC2c2ccc(C)cc2)sc(C)c1C (stereo not drawn) | 0.74
COc1ccccc1N1C(=O)NC(=O)/C(=C/c2ccc3c4c(cccc24)CC3)C1=O | 9.58
